Consider 17 compounds from patent US8067379B2, “Sulfur compounds as inhibitors of hepatitis C virus NS3 serine protease” (Schering Corporation, priority 2004, dated 2011).

In the first experiment the target is Recombinant heterodimeric HCV NS3/NS4A protease (strain 1a) (Hepatitis C virus genotype 1a, UniProt P27958). Kind of experiment: Spectrophotometric assay for HCV serine protease inhibitory activity (chromogenic ester substrates). Format: biochemical. The following applies: Table 3, sulfide compounds; HCV serine protease; read-out: Ki* range.
Usually Ki stands for the equilibrium dissociation constant of an inhibitor or competing ligand from its target. `C#CCCC(NC(=O)[C@@H]1[C@@H]2[C@H](CN1C(=O)[C@@H](NC(=O)NC1(CSCC)CCCCC1)C(C)(C)C)C2(C)C)C(=O)C(=O)NCC=C` (some centres unmarked) [Compound 121]: the Ki was less than 0.075 µM.

Still in this experiment, the particulars now being: Table 3, sulfone compounds; HCV serine protease; read-out: Ki* range.
`CC(C)(C)[C@H](NC(=O)N[C@H](CS(=O)(=O)c1ccccc1)C(C)(C)C)C(=O)N1C[C@H]2[C@@H]([C@H]1C(=O)NC(CC1CC1)C(=O)C(N)=O)C2(C)C` (some centres unmarked) [Compound 168]: the Ki was less than 0.075 µM.

`C=CCCNC(=O)C(=O)C(CC1CC1)NC(=O)[C@@H]1[C@@H]2[C@H](CN1C(=O)[C@@H](NC(=O)NC1(CS(=O)(=O)C(C)(C)C)CCCCC1)C(C)(C)C)C2(C)C` (some centres unmarked) [Compound 224]: the Ki is less than 0.075 µM.

Consider `C#CCCC(NC(=O)[C@@H]1[C@@H]2[C@H](CN1C(=O)[C@@H](NC(=O)NC1(CS(=O)(=O)c3ccccc3)CCCCC1)C(C)(C)C)C2(C)C)C(=O)C(N)=O` (some centres unmarked) [Compound 154], for which the Ki was less than 0.075 µM.

For the compound `C=CCNC(=O)C(=O)C(CCC)NC(=O)[C@@H]1[C@@H]2C[C@H](CN1C(=O)[C@@H](NC(=O)NC1(CS(C)(=O)=O)CCCCC1)C(C)(C)C)C2(C)C` (some centres unmarked) [Compound 217], the Ki is less than 0.075 µM.

`CC(C)[C@@H](CS(=O)(=O)Cc1ccccc1)NC(=O)N[C@H](C(=O)N1C[C@H]2[C@@H]([C@H]1C(=O)NC(CC1CCC1)C(=O)C(N)=O)C2(C)C)C(C)(C)C` (some centres unmarked) [Compound 145]: the Ki was less than 0.075 µM.

The same experiment, now with this note: Table 3, sulfoxide compounds; HCV serine protease; read-out: Ki* range.
Consider `C=CCNC(=O)C(=O)C(CCC(F)(F)F)NC(=O)[C@@H]1[C@@H]2[C@H](CN1C(=O)[C@@H](NC(=O)NC1(C[S+]([O-])c3ccccn3)CCCCC1)C(C)(C)C)C2(C)C` (some centres unmarked) [Compound 138], for which the Ki is 0.075 to 0.25 µM.

The experiment is the same for the next values; noted with them: Table 3A; cells that print a number instead of a class symbol; read-out: Ki* Range.
As for `C=CCNC(=O)C(=O)[C@H](CC1CC1)NC(=O)[C@@H]1[C@@H]2[C@H](CN1C(=O)[C@@H](NC(=O)NC1(CS(=O)(=O)C(C)(C)C)CCCCC1)C(C)(C)C)C2(C)C` [Compound 695], the Ki was determined as 0.005 µM.

Staying with this experiment, now noted: Table 3A; class symbols; read-out: Ki* Range.
As to `CC1([C@H](NC(=O)NC2(CS(=O)(=O)C(C)(C)C)CCCCC2)C(=O)N2C[C@H]3[C@@H]([C@H]2C(=O)N[C@@H](CCC2CC2)C(=O)C(=O)NC2CC2)C3(C)C)CCCCC1` [Compound 770], the Ki is less than 0.075 µM.

Take `CC(C)(C)[C@H](NC(=O)NC1(C2CCCS2(=O)=O)CCCCC1)C(=O)N1C[C@H]2[C@@H]([C@H]1C(=O)N[C@@H](CCC1CC1)C(=O)C(=O)NC1CC1)C2(C)C` (some centres unmarked) [Compound 746]: the Ki is less than 0.075 µM.

On to `CCCNC(=O)C(=O)C(CC1CC1)NC(=O)[C@@H]1[C@@H]2[C@H](CN1C(=O)[C@@H](NC(=O)NC1(CS(=O)(=O)C(C)(C)C)CCCCC1)C1(C)CCCCC1)C2(C)C` (some centres unmarked) [Compound 414], for which the Ki was less than 0.075 µM.

For the compound `C=CCNC(=O)C(=O)[C@H](CC1CC1)NC(=O)[C@@H]1[C@@H]2[C@H](CN1C(=O)[C@@H](NC(=O)NC1(CS(=O)(=O)C(C)(C)COCC)CCCCC1)C(C)(C)C)C2(C)C` [Compound 773], the Ki is less than 0.075 µM.

Regarding `CCCC[C@H](NC(=O)[C@@H]1[C@@H]2[C@H](CN1C(=O)[C@@H](NC(=O)NC1([C@H]3CCCS3(=O)=O)CCCCC1)C(C)(C)C)C2(Cl)Cl)C(=O)C(=O)NCC` [Compound 883-cw], the Ki was less than 0.075 µM.

On to `C=CCNC(=O)C(=O)C(CC1CC1)NC(=O)[C@@H]1[C@@H]2[C@H](CN1C(=O)[C@@H](NC(=O)NC1(CS(=O)(=O)C(C)(C)C)CCC(F)(F)CC1)C1(C)CCCCC1)C2(C)C` (some centres unmarked) [Compound 453], for which the Ki was less than 0.075 µM.

With `C=CCNC(=O)C(=O)C(CC1CC1)NC(=O)[C@@H]1[C@@H]2[C@H](CN1C(=O)[C@@H](NC(=O)NC1(CS(=O)(=O)C(C)(C)c3ccccc3)CCCCC1)C1(C)CCCCC1)C2(C)C` (some centres unmarked) [Compound 516], the Ki was less than 0.075 µM.

Consider `CCCCC(NC(=O)[C@@H]1[C@@H]2[C@H](CN1C(=O)[C@@H](NC(=O)NC1(CS(=O)(=O)C(C)(C)C)CCCCC1)C(C)(C)C)C2(C)C)C(=O)C(=O)NCc1cccnc1` (some centres unmarked) [Compound 736], for which the Ki was less than 0.075 µM.

Take `CC(C)(C)[C@H](NC(=O)NC1(CS(=O)(=O)C(C)(C)C)CCCCC1)C(=O)N1C[C@H]2[C@@H]([C@H]1C(=O)N[C@@H](CCC1CC1)C(=O)C(=O)NCC1CC1)C2(C)C` [Compound 883-am]: the Ki is less than 0.075 µM.
